In PubChem BioAssay AID485341 (National Center for Advancing Translational Sciences (NCATS), 2010):
Hit rate of the full screen: of about 330,000 compounds, about 1,700 (0.52%) were called active. Inconclusive means that the source gave no clear call. Such entries were picked first, then a sample of the others. Calls follow the shape of the dose curve; as a rule, active = well fitted inhibition curve with a large enough effect; inconclusive = small, poorly fitted or top-dose-only effect; inactive = no such curve, though single readings can be large or run the other way. A potency beside an inconclusive call is a rough fit, not a confirmed value.

The compounds below were run against Beta-lactamase (Escherichia coli (strain K12)) (UniProt P00811) (assay: qHTS Inhibitors of AmpC Beta-Lactamase (assay without detergent)). Conditions: AmpC nitrocefin hydrolysis, absorbance 480 nm, 0.0001% Triton; activity change, negative = inhibition: at 57.1 µM (top of the series) unless noted.
UniProt P00811, sequence (P00811 whole entry, looked up): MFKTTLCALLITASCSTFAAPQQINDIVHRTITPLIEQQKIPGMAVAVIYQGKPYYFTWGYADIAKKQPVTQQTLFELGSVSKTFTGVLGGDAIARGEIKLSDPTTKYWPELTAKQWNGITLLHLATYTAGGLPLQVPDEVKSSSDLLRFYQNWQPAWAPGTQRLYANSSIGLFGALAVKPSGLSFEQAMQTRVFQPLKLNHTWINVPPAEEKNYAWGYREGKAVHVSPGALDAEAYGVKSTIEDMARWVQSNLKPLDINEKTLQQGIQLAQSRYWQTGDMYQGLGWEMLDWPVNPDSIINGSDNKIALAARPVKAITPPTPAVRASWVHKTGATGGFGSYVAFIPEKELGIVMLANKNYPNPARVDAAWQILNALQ
Summary of the method: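 AmpC (5.3 nM in the dispensed reagent) in 20 mM phosphate pH 7.0 with 0.01% (detergent screen) or 0.0001% Triton X-100 was preincubated with compounds for 15 min at room temperature. Nitrocefin was then added from an 800 uM solution, and hydrolysis was followed at 480 nm.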
Also: nearly all actives have a fitted effect of over 20% in size.
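For activity change, negative = inhibition in this document: plate controls were no compound for no effect and no enzyme for full effect.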
Potency is read from the fitted curve at half-maximal effect; tags tell the direction and shape of the fitted curve.

| Compound | Potency | activity change, negative = inhibition |
| --- | --- | --- |
| O=C(Nn1c(C2CCCCC2)nc2ccccc2c1=O)c1ccc([N+](=O)[O-])cc1Cl | active: 14.1 µM | – |
| COc1ccc(/C=C/C(=O)c2ccc(NC(=O)c3cccs3)cc2)cc1OC | inconclusive: 2.51 µM [inhibitor, single point] | – |
| Cc1cc(C(=O)COc2ccc(C#N)cc2)c(C)n1C1CC1 | inconclusive: 35.5 µM [inhibitor, single point] | – |
| O=C(CSc1ccc2ccccc2c1)Nc1nc2ccccc2[nH]1 | inconclusive: 20 µM [inhibitor, partial curve] | – |
| Cc1cccc(-n2nnc(C(=O)NCc3ccccn3)c2N)c1 | inconclusive: 1 µM [inhibitor, partial curve, poor fit] | – |
| O=C(CN1c2ccccc2S(=O)(=O)c2ccccc21)Nc1ccccc1F | inconclusive: 35.5 µM [inhibitor, single point] | – |
| Cc1ccc(NC(=O)C2(NC(=O)c3ccccn3)CCCCC2)cc1Br | inconclusive: 31.6 µM [inhibitor, single point] | – |
| CCOC(=O)c1c(C)[nH]c(=S)c(C#N)c1-c1ccc(Cl)cc1 | active: 28.2 µM | – |
| O=C(Cc1c[nH]c2ccccc12)N1CCc2ccccc21 | inconclusive: 35.5 µM [inhibitor, single point] | – |
| Oc1ccc(-c2csc(-c3ccccc3)n2)cc1O | inconclusive: 17.8 µM [inhibitor, partial curve] | – |
| COc1ccc2[nH]c3c(NCc4ccco4)ncnc3c2c1 | inconclusive: 10 µM [inhibitor, partial curve] | – |
| Cc1ccc(C)c(Cn2c(=O)n(-c3ccc(CC(=O)NCc4ccco4)cc3)c(=O)c3sccc32)c1 | active: 11.2 µM | – |
| Nc1nc(SCc2nc3scc(-c4cccs4)c3c(=O)[nH]2)n[nH]1 | inconclusive: 39.8 µM [inhibitor, single point] | – |
| c1ccc(CN=C2NN=C(c3ccccc3)CS2)cc1 | inconclusive: 22.4 µM [inhibitor, single point] | – |
| CC(C)Nc1nc(NC(C)C)nc(SCCOC(=O)Nc2ccc(Cl)cc2Cl)n1 | – | inactive: -15.4% |
| COc1ccc(Oc2coc3c(CN4CCOCC4)c(O)ccc3c2=O)cc1 | – | inactive: -15.9% |
| O=C(c1ccncc1)N1C2C=CC(C2)C1(C(F)(F)F)C(F)(F)F (configuration not stated) | inconclusive: 7.08 µM [inhibitor, single point] | – |
| O=C(OC(C(=O)NCc1ccco1)C(OC(=O)c1ccccc1)C(=O)NCc1ccco1)c1ccccc1 (configuration not stated) | inconclusive: 28.2 µM [inhibitor, single point] | – |
| O=C(Nc1ccccc1)c1ccc(NCc2ccco2)c(S(=O)(=O)N2CCOCC2)c1 | inconclusive: 6.31 µM [inhibitor, single point] | – |
| COc1ccc(NC(=O)CNc2cccc(C#N)c2)cc1Cl | inconclusive: 15.8 µM [inhibitor, partial curve] | – |
| O=C(/C=C/c1ccc([N+](=O)[O-])cc1)/C=C/c1ccco1 | active: 20 µM | – |
| O=C(/C=C/c1cccc([N+](=O)[O-])c1)NCC1CCCO1 (configuration not stated) | inconclusive: 5.01 µM [inhibitor, partial curve, poor fit] | – |
| Cc1cc(N/N=C/c2c[nH]c3ccccc23)c2ccccc2n1 | – | inactive: -23.2% |

| Compound | Potency | activity change, negative = inhibition |
| --- | --- | --- |
| CC(C)(C)NC(=S)N/N=C\c1ccc(-c2ccc([N+](=O)[O-])cc2)o1 | inconclusive: 11.2 µM [inhibitor, partial curve] | – |
| O=C(/C=C/c1ccco1)Nc1cc(Cl)ccc1C(=O)O | inconclusive: 3.55 µM [inhibitor, full curve, poor fit] | – |
| O=C1OC(c2ccc(O)cc2)(c2ccc(O)cc2)c2ccccc21 | inconclusive: 15.8 µM [inhibitor, partial curve] | – |
| CCOc1cccc(-c2cc(C(=O)Nc3ccon3)c3ccccc3n2)c1 | active: 17.8 µM | – |
| Oc1ccc(Nc2nc(-c3ccc(O)cc3)cs2)cc1 | inconclusive: 3.98 µM [inhibitor, single point] | – |
| Cc1ccc2nc(NC(=O)[C@H](C)N3C(=O)C4CC=CCC4C3=O)sc2c1 (some centres not stated) | – | inactive: -26.1% [at 11.4 µM] |
| O=[N+]([O-])c1cccc(-c2nc(-c3ccccn3)no2)c1 | – | inactive: 0.162% |
| Nc1nc2c(nc(SCc3ccccc3Br)n2[C@@H]2O[C@H](CO)[C@@H](O)[C@H]2O)c(=O)[nH]1 | inconclusive: 25.1 µM [inhibitor, single point] | – |
| CC(C)=NNc1nc(-c2ccccc2)c(C)s1 | inconclusive: 28.2 µM [inhibitor, partial curve] | – |
| Cc1occc1-c1nnc(SCC(=O)N2CCOCC2)o1 | inconclusive: 0.282 µM [inhibitor, full curve, poor fit] | – |
| CCOc1ccc(OCC)c(NC(=O)CSc2nc3ccccc3c(=O)n2C)c1 | – | inactive: -9.66% |
| COc1ccc(-c2csc(NC(=O)C3CCCCN3S(=O)(=O)c3ccccc3)n2)cc1 (configuration not stated) | inconclusive: 1.41 µM [inhibitor, full curve, poor fit] | – |
| Cc1cc(C)cc(NC(=O)CSc2nnc(Cc3cccn3C)n2-c2ccc(F)cc2)c1 | inconclusive: 2.51 µM [inhibitor, full curve, poor fit] | – |
| CC(c1ccccc1)n1c(-c2ccc(Cl)cc2)n[nH]c1=S (configuration not stated) | inconclusive: 28.2 µM [inhibitor, single point] | – |
| CN1CCN(C(=O)C23CC4CC(CC(C4)C2)C3)CC1 | inconclusive: 6.31 µM [inhibitor, single point] | – |
| Cc1cc(=O)n2[nH]c(-c3ccc(Cl)cc3)cc2n1 | inconclusive: 5.01 µM [inhibitor, single point] | – |
| O=C(Nc1nccs1)c1cc(-c2ccco2)nc2ccccc12 | inconclusive: 15.8 µM [inhibitor, partial curve] | – |
| COc1ccc(NC(=O)c2cc3ccc4c5ccccc5[nH]c4c3cc2O)cc1 | inconclusive: 7.94 µM [inhibitor, full curve, poor fit] | – |
| CCOc1ccc(-c2nnc(N(CC)C(=O)C3CCC3)s2)cc1 | – | inactive: 141% |
| O=C(NC1CC(=O)N(c2cccc(F)c2)C1)C(=O)c1c[nH]c2ccccc12 (configuration not stated) | inconclusive: 31.6 µM [inhibitor, single point] | – |
| FC(F)(F)c1nnc2sc(-c3ccccn3)nn12 | inconclusive: 6.31 µM [inhibitor, single point] | – |
| CC1CCN(c2nc(Cl)nc(Nc3ccc([N+](=O)[O-])cc3)n2)CC1 | active: 10 µM | – |
| CC(C)(C)NC(=O)CN(Cc1cccs1)C(=O)c1csnn1 | inconclusive: 0.141 µM [inhibitor, full curve, poor fit] | – |

| Compound | Potency | activity change, negative = inhibition |
| --- | --- | --- |
| COc1cccc(NC(=O)CN(C)C(=O)CN2C(=O)c3ccc([N+](=O)[O-])cc3C2=O)c1 | inconclusive: 35.5 µM [inhibitor, single point] | – |
| O=C(CCn1c(=O)oc2ccccc21)Nc1nc2ccccc2s1 | inconclusive: 10 µM [inhibitor, full curve, poor fit] | – |
| COC(=O)c1cc(=O)n(CCc2ccccc2)c(=Nc2ccc(F)cc2)s1 | active: 0.708 µM | – |
| Cc1cccc(N2C(=O)NC(=O)/C(=C\c3cccn3-c3ccc(Cl)cc3)C2=O)c1 | inconclusive: 31.6 µM [inhibitor, single point] | – |
| CCCCn1c(N)c(N(CC(C)C)C(=O)CC(NC(=O)c2ccccc2)c2ccccc2)c(=O)[nH]c1=O (configuration not stated) | – | inactive: -19.4% |
| COc1ccc2nc(NC(=O)c3ccc(NS(=O)(=O)c4cccs4)cc3)sc2c1 | active: 2.51 µM | – |
| O=C1CN(C(=O)CSc2nnnn2-c2ccc(Cl)cc2)c2ccccc2N1 | inconclusive: 17.8 µM [inhibitor, partial curve] | – |
| COc1ccc(C(=O)N(CC2CCCO2)C(C(=O)NC2CCCC2)c2ccc(C)cc2)cc1OC (configuration not stated) | inconclusive: 8.91 µM [inhibitor, single point] | – |
| COc1cccc(NC(=O)C2C3CCC4C(CCC32)C4(Cl)Cl)c1 (configuration not stated) | inconclusive: 1.41 µM [inhibitor, full curve, poor fit] | – |
| O=c1c(C(c2ccc(F)cc2)c2c(O)nc3n(c2=O)CCS3)c(O)nc2n1CCS2 | inconclusive: 8.91 µM [inhibitor, partial curve] | – |
| O=C(CCCOc1ccc(Cl)cc1Cl)Nc1ccccc1C(=O)O | – | inactive: -28.8% |
| COc1ccc(OC)c(/C=N/NC(=O)c2cc(-c3ccc(C)o3)nc3ccccc23)c1 | inconclusive: 8.91 µM [inhibitor, full curve, poor fit] | – |
| COC(=O)c1ccccc1NC(=O)NN1CCN(C)CC1 | inconclusive: 14.1 µM [inhibitor, partial curve] | – |
| Cc1cc(N2CCN(S(=O)(=O)Cc3ccccc3)CC2)n2ncnc2n1 | inconclusive: 5.01 µM [inhibitor, single point] | – |
| Cc1nc(-c2ccccc2)sc1C(=O)CSc1ccc(Cl)cc1 | inconclusive: 4.47 µM [inhibitor, single point] | – |
| COCCOC(=O)C1=C(N)Oc2c(oc(CO)cc2=O)C1c1c(F)cccc1Cl (configuration not stated) | – | inactive: -6.6% |
| Cn1c(=O)c2c(nc(CN3CCN(C(=O)c4ccco4)CC3)n2Cc2ccccc2)n(C)c1=O | inconclusive: 6.31 µM [inhibitor, single point] | – |
| COc1ccc(OC)c(/C=C2\SC(=S)N(Cc3cccnc3)C2=O)c1 | inconclusive: 5.01 µM [inhibitor, full curve, poor fit] | – |
| Cc1ccc(-n2c(CCC(=O)O)ccc2-c2cccs2)cc1 | – | inactive: -44.8% |
| O=C(CCN1C(=O)/C(=C/c2ccccc2Cl)SC1=S)N1CCCC1 | – | inactive: 5.37% |
| O=C(Nc1nc2ccc(F)cc2s1)C1CCN(S(=O)(=O)c2cc([N+](=O)[O-])ccc2Cl)CC1 | inconclusive: 3.55 µM [inhibitor, full curve, poor fit] | – |
